From PubChem BioAssay AID2147 (National Center for Advancing Translational Sciences (NCATS), 2009)
Screen size: about 230,000 compounds; about 3,600 (1.6%) were called active. The inconclusive results got no clear call from the source; some entries with a clear call stand among them for comparison. The call rests on the fitted dose curve; in most records, active means well fitted inhibition curve with a large enough effect (not every such curve was filed as active); inconclusive means small, poorly fitted or top-dose-only effect, or another doubt; inactive means no such curve, though single readings can be large or run the other way. Potencies of inconclusive entries are doubtful fits and often do not repeat.
Further: nearly all actives have a fitted effect of over 50% in size.
Potency means the concentration at half of the fitted maximal effect; tags describe the fitted curve by direction and shape.

What follows are molecules tested against Lysine-specific demethylase 4E (Homo sapiens) (UniProt B2RXH2) (assay: qHTS Assay for Inhibitors of Human Jumonji Domain Containing 2E (JMJD2E)). Settings: JMJD2E catalytic domain, FDH-coupled NADH fluorescence (FDH is formaldehyde dehydrogenase); series mostly up to 57.1 µM.
Chain of UniProt B2RXH2 (B2RXH2 whole entry, looked up, the tested form may be a part): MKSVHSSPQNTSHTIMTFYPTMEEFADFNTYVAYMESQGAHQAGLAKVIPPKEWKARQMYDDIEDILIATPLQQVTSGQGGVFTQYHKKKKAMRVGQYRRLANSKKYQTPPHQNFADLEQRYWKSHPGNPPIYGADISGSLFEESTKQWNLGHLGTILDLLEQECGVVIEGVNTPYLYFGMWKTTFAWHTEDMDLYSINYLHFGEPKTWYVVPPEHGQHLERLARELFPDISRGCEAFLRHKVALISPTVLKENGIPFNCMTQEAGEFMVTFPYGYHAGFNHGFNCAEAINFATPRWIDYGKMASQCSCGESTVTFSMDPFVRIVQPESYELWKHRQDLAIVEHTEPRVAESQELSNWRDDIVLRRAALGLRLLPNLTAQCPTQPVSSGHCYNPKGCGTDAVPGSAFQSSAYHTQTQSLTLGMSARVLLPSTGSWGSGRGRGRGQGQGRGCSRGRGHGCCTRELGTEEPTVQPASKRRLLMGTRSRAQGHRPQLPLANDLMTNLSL
For `Cc1ccc(NS(=O)(=O)c2cc(NC(=O)c3ccc4c(c3)NC(=O)CS4)ccc2Cl)c(C)c1`, the Potency was inconclusive: 20 µM [inhibitor, single point].
`OCCCCNc1cccc2ccccc12` was tested, and the Potency was inconclusive: 28.2 µM [inhibitor, partial curve].
For `O=C(NCCNCCO)c1c(O)c2cccc3c2n(c1=O)CCC3`, the Potency was inconclusive: 25.1 µM [inhibitor, partial curve].
In the case of `C=CCOc1ccc(/C=C2\SC(=Nc3cccnc3)NC2=O)cc1`, the Potency is reported as inconclusive: 35.5 µM [inhibitor, single point].
In the case of `O=C(NNC(=S)NC(=O)c1ccco1)c1ccc(NC(=O)c2ccccc2)cc1`, the Potency is reported as inconclusive: 39.8 µM [inhibitor, single point].
In the case of `CC(=O)c1cc2c(cc1N/C(=N/S(=O)(=O)c1ccc(C)cc1)c1ccc(Cl)cc1)OCO2`, the Potency is reported as inconclusive: 7.94 µM [inhibitor, single point].
`Cc1cnc(-c2nnc(N(C)C(=O)c3cccnc3)s2)cn1` was tested, and the Potency was inconclusive: 39.8 µM [inhibitor, single point].
`CSc1nc(N)nc(SCC(=O)c2ccccc2)c1C#N` was tested, and the Potency was “inactive”.
With `O=C(NCCc1ccccc1)c1ccc2nc(-c3ccco3)c(-c3ccco3)nc2c1` the Potency was inconclusive: 25.1 µM [inhibitor, partial curve].
With `S=c1[nH]c2ccccc2s1` the Potency was active: 20 µM.
With `O=C(Nc1ccccc1N1CCOCC1)c1cc2c(s1)CCCCC2` the Potency was inconclusive: 39.8 µM [inhibitor, single point].
`CC(C)OCCCN1C=C2C(=O)C(C)(OC(=O)C3CCCC3)C(=O)C=C2C=C1c1ccsc1` (centres undefined) was tested, and the Potency was inconclusive: 5.62 µM [inhibitor, single point].
For `CCOc1ccc2oc(-c3ccccc3)c(C(=O)N3CCN(CCO)CC3)c2c1`, the Potency was inconclusive: 31.6 µM [inhibitor, partial curve].
With `C=CCC1(O)CC(c2ccco2)NC(c2ccco2)C1CCC` (centres undefined) the Potency was inconclusive: 35.5 µM [inhibitor, single point].
`O=C(NCC(O)CO)c1ccc2[nH]c3ccccc3c2c1` (centres undefined) was tested, and the Potency was inconclusive: 31.6 µM [inhibitor, partial curve].
For `Cc1ccc(C(=O)Nc2cccc(C(F)(F)F)c2)cc1Nc1ccccn1`, the Potency was “inactive”.
In the case of `C#CCOCCOCCOCCNc1nc(N2CCN(C(=O)[C@H](CCCCN)n3cc([C@@H](N)CO)nn3)CC2)nc(N2CCN(C(=O)[C@H](Cc3ccc(O)cc3)n3cc([C@@H](N)CC(C)C)nn3)CC2)n1`, the Potency is reported as “inactive”.
In the case of `CCN1CCN(c2cc(C)c3cc(NC(=O)c4cc(OC)cc(OC)c4)ccc3n2)CC1`, the Potency is reported as “inactive”.
With `NS(=O)(=O)c1ccc(Nc2nc3ccccc3nc2NS(=O)(=O)c2cccc([N+](=O)[O-])c2)cc1` the Potency was “inactive”.
`CN(C)c1ccc(-c2nnn(CC(=O)N3c4ccccc4CCc4ccccc43)n2)cc1` was tested, and the Potency was inconclusive: 22.4 µM [inhibitor, partial curve].
`Cc1ccc(S(=O)(=O)NCc2csc(-c3cccs3)n2)cc1` was tested, and the Potency was inconclusive: 25.1 µM [inhibitor, single point].
With `O=c1ncn(-c2ccccc2F)c2ncccc12` the Potency was inconclusive: 31.6 µM [inhibitor, single point].
With `COC(=O)c1c(NC(=S)Nc2ccc(CC(=O)O)cc2)sc(C)c1C` the Potency was “inactive”.
`O=S(Cc1cc(Sc2ccccc2)nc(-c2ccccc2)n1)c1ccccc1` (centres undefined) was tested, and the Potency was “inactive”.
In the case of `Clc1ccc(Cn2ncc3c(N4CCCCC4)ncnc32)c(Cl)c1`, the Potency is reported as inconclusive: 39.8 µM [inhibitor, single point].
In the case of `COc1cc(CC(=O)OCC(=O)Nc2ccc(S(=O)(=O)N3CCCC3)cc2)cc(OC)c1OC`, the Potency is reported as “inactive”.
With `CC(=O)NC(CCCNC(=S)NC1CCCCC1)C(=O)O` (centres undefined) the Potency was “inactive”.
In the case of `CC1CCN(S(=O)(=O)c2ccc3[nH]c(=O)cc(C(=O)O)c3c2)CC1`, the Potency is reported as inconclusive: 35.5 µM [inhibitor, single point].
`N#C/C(=C\c1ccc(O)c(O)c1)S(=O)(=O)c1ccccc1` was tested, and the Potency was active: 25.1 µM.
`N#CC12COC3(CCCCC3C1(C#N)C#N)OC2=N` (centres undefined) was tested, and the Potency was inconclusive: 31.6 µM [inhibitor, partial curve].
For `Cc1ccc(O)c(-c2cc(C(=O)Nc3ccc(S(=O)(=O)N4CC(C)OC(C)C4)cc3)[nH]n2)c1` (centres undefined), the Potency was “inactive”.
`Cc1ccc(CSc2nnc3c(n2)OC2(Nc4ccccc4-3)C(=O)Nc3ccc(F)cc32)cc1` (centres undefined) was tested, and the Potency was inconclusive: 35.5 µM [inhibitor, single point].
With `COc1cccc(C(c2c(N)[nH]c(=S)[nH]c2=O)c2c(N)[nH]c(=S)[nH]c2=O)c1` the Potency was “inactive”.
With `COC(=O)Oc1ccccc1C(=O)O` the Potency was inconclusive: 28.2 µM [inhibitor, partial curve].
In the case of `COc1ccc(N2CCN(CCOc3ccc4c(C)cc(=O)oc4c3)CC2)cc1`, the Potency is reported as inconclusive: 12.6 µM [inhibitor, partial curve].
In the case of `COc1ccccc1CNc1ccc([N+](=O)[O-])cc1C`, the Potency is reported as “inactive”.
For `c1ccc(Nc2ncnc3ccc(-c4cccnc4)cc23)cc1`, the Potency was “inactive”.
`CC(C)/C(=N/Nc1ccccc1[N+](=O)[O-])c1ccccc1` was tested, and the Potency was “inactive”.
With `Cc1cccn2c(=O)c(/C=C(\C#N)C(=O)NC3CCS(=O)(=O)C3)c(N3CCC(C)CC3)nc12` (centres undefined) the Potency was inconclusive: 3.16 µM [inhibitor, full curve].
In the case of `COc1ccccc1N(C(=O)CN1C(=O)c2ccccc2S1(=O)=O)C(C(=O)NCC1CCCO1)c1ccc(F)cc1` (centres undefined), the Potency is reported as “inactive”.
`O=c1c(-c2cc(O)c(O)c(O)c2)coc2cc(O)c(O)c(O)c12` was tested, and the Potency was active: 2.82 µM.
`Cc1cc(NC(=O)c2ccc(S(=O)(=O)N3CCOCC3)cc2)nc2c1c(=O)oc1ccccc12` was tested, and the Potency was inconclusive: 31.6 µM [inhibitor, single point].
`O=C(NC(=S)N1CCCc2ccccc21)c1ccccc1` was tested, and the Potency was “inactive”.
With `Cc1ccc(Cl)cc1NC(=S)N(C)N` the Potency was inconclusive: 3.55 µM [inhibitor, full curve, poor fit].
`CCc1ccc2[nH]c(=O)c(CN(Cc3nnnn3C3CCCC3)C3CCCCC3)cc2c1` was tested, and the Potency was inconclusive: 25.1 µM [inhibitor, single point].
`O=S(=O)(/C(=C/c1ccc(C(F)(F)F)cc1)c1nc2ccccc2[nH]1)c1ccccc1` was tested, and the Potency was “inactive”.
For `CC(C)c1cc(-c2cc(C(=O)NCc3ccccc3)on2)nc(NC2CCCC2)n1`, the Potency was inconclusive: 39.8 µM [inhibitor, single point].
In the case of `Cc1ccc(Nc2nc(C)c3c(n2)CC(C)CC3=O)c(C)c1` (centres undefined), the Potency is reported as inconclusive: 39.8 µM [inhibitor, single point].
`Cc1occc1-c1nnc(SCC(=O)NCc2ccco2)n1CC(C)C` was tested, and the Potency was inconclusive: 39.8 µM [inhibitor, single point].
With `CC1(C)Cc2c(c(N3CCOCC3)nc3sc4c(=O)[nH]cnc4c23)CS1` the Potency was inconclusive: 31.6 µM [inhibitor, single point].
With `C/C(=N\Nc1nc2ccccc2s1)c1ccc2c(c1)OCO2` the Potency was “inactive”.
In the case of `COC(=O)c1cc2ccccc2oc1=O`, the Potency is reported as inconclusive: 22.4 µM [inhibitor, partial curve].
`O=C1CCC/C(=N/NC(=O)c2cc(NS(=O)(=O)c3cccs3)cc(NS(=O)(=O)c3cccs3)c2)C1` was tested, and the Potency was inconclusive: 39.8 µM [inhibitor, single point].
In the case of `Oc1ccc(/C=N/NC(=S)Nc2cccnc2)cc1O`, the Potency is reported as active: 15.8 µM.
With `CCn1c(SCC(=O)NCc2ccc3c(c2)OCO3)nnc1-c1ccncc1` the Potency was inconclusive: 35.5 µM [inhibitor, single point].
With `Cc1ccc2oc(-c3ccccc3)c(C(=O)O)c(=O)c2c1` the Potency was inconclusive: 23.8 µM [inhibitor, single point].
In the case of `CCOC(=O)c1cccc(C(=O)Nc2nc3ccc(OC)cc3s2)n1`, the Potency is reported as inconclusive: 28.2 µM [inhibitor, partial curve].
In the case of `COCc1ccc(CN2CCc3c([nH]c4ccccc34)C2CC(C)C)o1` (centres undefined), the Potency is reported as inconclusive: 22.4 µM [inhibitor, partial curve].
With `Cc1cccc(NC(=O)CN2C(=O)S/C(=C\c3ccc(-c4cccc(C(=O)O)c4C)o3)C2=O)c1` the Potency was inconclusive: 22.4 µM [inhibitor, single point].
In the case of `CCOC(=O)/C=c1\s/c(=C\c2ccc3cc(OC)ccc3c2)c(=O)n1CC(=O)NCc1ccc2c(c1)OCO2`, the Potency is reported as “inactive”.
For `O=C(N/N=C/c1cc(Cl)ccc1O)c1ccccc1Br`, the Potency was active: 11.2 µM.
`CCOC(=O)c1[nH]c2cc3c(cc2c1NC(=O)CN1CCCCC1C)OCO3` (centres undefined) was tested, and the Potency was inconclusive: 31.6 µM [inhibitor, partial curve].
With `CC1CN(C2CCN(C(=O)c3ccccc3)CC2)CC(C)O1` (centres undefined) the Potency was inconclusive: 28.2 µM [inhibitor, single point].
With `CN(C(=O)CCc1ccccc1)c1nnc(-c2ccncc2)s1` the Potency was inconclusive: 25.1 µM [inhibitor, partial curve].
With `N#Cc1cc(-c2ccccc2)cn(Cc2c(Cl)cccc2Cl)c1=O` the Potency was inconclusive: 10 µM [inhibitor, partial curve].
For `CCS(=O)(=O)N1CCN(C2CCC(c3ccccc3)CC2)CC1` (centres undefined), the Potency was inconclusive: 15.8 µM [inhibitor, single point].
In the case of `CCOC(=O)Cn1ccc(-c2ccccc2)c(C#N)c1=O`, the Potency is reported as inconclusive: 25.1 µM [inhibitor, partial curve].
`CC(Oc1ccc(F)cc1)C(=O)NN` (centres undefined) was tested, and the Potency was “inactive”.
`Cc1ccccc1C(=O)N1CCN(c2ccc(NC(=O)c3ccc4c(c3)OCO4)cc2)CC1` was tested, and the Potency was inconclusive: 28.2 µM [inhibitor, partial curve, poor fit].
